# From PubChem BioAssay AID686979 (National Center for Advancing Translational Sciences (NCATS), 2013)
# Several values for one entry are separate records, joined by “and”; a condition that tells them apart may be missing. Identical values can stand only once. Screen size: about 420,000 compounds; about 50,000 (12%) were called active. The shares of active, inactive and inconclusive entries below differ from those in the screen. Calls follow the shape of the dose curve; as a rule, active = well fitted inhibition curve with a large enough effect; inconclusive = small, poorly fitted or top-dose-only effect; inactive = flat fitted curve, though single readings scatter. Potencies of inconclusive entries are doubtful fits and often do not repeat.
# Assay: qHTS for Inhibitors of human tyrosyl-DNA phosphodiesterase 1 (TDP1): qHTS in cells in presence of CPT; also: nearly all actives have a fitted effect of over 55% in size
# Details: chicken DT40 Tdp1-/-;hTDP1 cells + 20 nM CPT, ATP luminescence, 48 h; activity change, negative = growth inhibition: at 46.2 µM (top of the series)
# How it was run: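 Chicken DT40 Tdp1-/- cells complemented with human TDP1, 400 cells/well, exposed to compounds plus 20 nM camptothecin for at least 48 h at 37 C; viability read as ATP content by CellTiter-Glo luminescence.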
# % is scaled to controls: 0 for no effect and ±100 for the full control effect; potency is read from the fitted curve at half-maximal effect; tags tell the direction and shape of the fitted curve.
SMILES,Potency,"activity change, negative = growth inhibition"
CCOC(=O)c1c(NC(=O)C2c3ccccc3Oc3ccccc32)sc(C)c1C,"inconclusive: 29.1 µM [inhibitor, single point]",
CSCCC(NC(=O)COc1ccccc1)C(=O)N1CCN(c2ccccc2Cl)CC1 (stereo not given),"inconclusive: 29.1 µM [inhibitor, single point]",
O=C(Cn1[nH]c(=O)c2ccccc2c1=O)Nc1cccnc1,,inconclusive: -20.6% [inhibitor]
O=C(c1cccnc1)N1c2ccccc2Sc2ccccc21,active: 14.6 µM,
CCCOc1cccc(C(=O)Nc2cc(NC(=O)c3ccco3)ccc2OC)c1,"inconclusive: 29.1 µM [inhibitor, single point]",
Cc1c(CC(=O)NCc2ccc(F)cc2)c(=O)oc2cc(O)c(Cl)cc12,"inconclusive: 29.1 µM [inhibitor, single point]",
OC(COc1ccccc1)CN1C2=NCCCN2c2ccccc21 (stereo not given),"inconclusive: 29.1 µM [inhibitor, single point]",
CCCNC(=O)c1cn(CC)c2cc(N3CCN(C(=O)c4ccco4)CC3)c(F)cc2c1=O,"inconclusive: 29.1 µM [inhibitor, single point]",
O=c1[nH]c2ccccc2n1CCC1CCCCC1,,inactive: -24.8%
CCCn1c(CN2CCN(C(=O)OCC)CC2)nc2cc(NC(=O)CC)ccc21,active: 3.26 µM,
O=C(NCc1ccccc1Cl)c1ccc2oc(=O)n(Cc3ccccc3)c2c1,"inconclusive: 29.1 µM [inhibitor, single point]",
COc1cccc(NC(=O)c2ccc(S(=O)(=O)NCc3cccnc3)cc2)c1,"inconclusive: 11.6 µM [inhibitor, partial curve]",
N#CCCn1c(=O)c(-c2ccccc2)nc2cnc(N3CCNCC3)nc21,"inconclusive: 29.1 µM [inhibitor, single point]",
Cc1ccccc1-c1cc2nc(OCC3CCCO3)n(C)c(=O)c2s1 (stereo not given),"inconclusive: 29.1 µM [inhibitor, single point]",
Cc1cc(C)nc(N/N=C/c2ccco2)n1,,inactive: -3.28%
CCOC(=O)c1c(NC(=O)CN(C)C)sc(C(=O)N(CC)CC)c1C,,inactive: -3.63%
O=C(Nc1ccccc1)C1=C(c2ccccc2)S(=O)(=O)CCS1(=O)=O,active: 0.058 µM,
O=c1c(O)cccc2cc(O)c(O)c(O)c12,"inconclusive: 23.1 µM [inhibitor, single point] and inconclusive: 16.4 µM [inhibitor, single point]",
Cc1nn2c(N)c(C#N)cnc2c1-c1ccccc1,"inconclusive: 32.6 µM [inhibitor, single point]",
COc1cc(Cl)ccc1OCc1cc(C(=O)NCCCN2CCCC2=O)no1,"inconclusive: 20.6 µM [inhibitor, single point]",
Clc1ccccc1Cn1c(/C=C/c2ccco2)nc2ccccc21,"inconclusive: 29.1 µM [inhibitor, single point]",
O=C(CSc1nc(-c2ccccc2)c(-c2ccccc2)[nH]1)NCCN1C(=O)CSC1=O,active: 13 µM,
CCOc1ccccc1C(=O)N1CCN(C(c2ccccc2)c2ccccc2)CC1,"inconclusive: 16.4 µM [inhibitor, single point]",
Cc1ccc(C(=O)Nc2cc(Cl)ccc2N2CCCCC2)s1,"inconclusive: 29.1 µM [inhibitor, single point]",

SMILES,Potency,"activity change, negative = growth inhibition"
O=C(O)CCCNc1cc(N2CCN(C(=O)c3ccco3)CC2)c2noc3c2c1C(=O)c1ccccc1-3,"inconclusive: 16.4 µM [inhibitor, single point]",
CN(CC(=O)Nc1ccccc1Br)C(=O)c1ccccc1OCc1ccccc1Cl,"inconclusive: 29.1 µM [inhibitor, single point]",
Cc1cccc(-n2nc(C)c(C(=O)Nc3cc(C)ccc3C)c2-n2cccc2)c1,"inconclusive: 29.1 µM [inhibitor, single point]",
CC(=O)Nc1ccc(-c2noc(-c3csc([C@@H]4C[C@H](O)[C@@H](CO)O4)n3)n2)cc1,,inactive: -13.6%
O=C(NNc1ccccc1)c1sc2ccccc2c1Cl,"inconclusive: 35.5 µM [inhibitor, single point]",
CCN(CC1CCCN(CCc2cccc(OC)c2)C1)C(=O)c1ccoc1C (stereo not given),"inconclusive: 29.1 µM [inhibitor, single point]",
CC(C)(C)OC(=O)N1CCC[C@H]1c1nnc(SCc2ccc(Cl)cc2Cl)o1,"inconclusive: 25.9 µM [inhibitor, single point]",
CCOC(=O)c1sc(NC(=O)c2cc(-c3ccccc3C)nc3ccccc23)c(C#N)c1C,active: 9.2 µM,
Cc1ccc(NC(=O)C2C(C(=O)O)C3C=CC2C32CC2)cc1 (stereo not given),,inactive: 2.56%
Cc1ccc(-n2c(O)c(C=NC3CCS(=O)(=O)C3)c3ccccc3c2=O)c(C)c1 (stereo not given),active: 20.6 µM,
C=CCc1cccc(/C=N/NC(=O)CNc2cccc3ccccc23)c1O,active: 4.61 µM,
O=C1CCCN1c1ccc(S(=O)(=O)N2CCC(c3ccccc3)CC2)cc1,"inconclusive: 18.4 µM [inhibitor, single point]",
Cc1cccc(NC(=O)N(Cc2cc3cc(C)ccc3[nH]c2=O)CC2COCCO2)c1 (stereo not given),"inconclusive: 25.9 µM [inhibitor, single point]",
Cc1cc(C2N=C(N)Nc3nc4ccccc4n32)c(C)n1-c1ccccc1Cl (stereo not given),active: 20.6 µM,
O=C(Nc1ccc(-c2nc3cc(Cl)ccc3o2)cc1)c1cc2ccccc2o1,"inconclusive: 25.9 µM [inhibitor, single point]",
Cc1cc(C(=O)N/N=C/c2ccccc2Br)no1,,inactive: -9.06%
O=C(CSc1nc2ccccc2[nH]1)c1ccccc1F,,inactive: 0.179%
COc1ccc(Cl)cc1C(=O)Nn1cnc2ccccc2c1=O,"inconclusive: 11.6 µM [inhibitor, partial curve]",
CCC1(C)Cc2c(sc3nc(SC)n(-c4ccc(C)cc4)c(=O)c23)CO1 (stereo not given),"inconclusive: 5.17 µM [inhibitor, single point]",
O=S(=O)(c1ccccc1)N1CCC2(CCCN(C(c3ccccc3)c3ccccc3)C2)CC1,,inactive: 7.25%
CC1(C)c2ssc(=S)c2-c2ccccc2N1C(=O)c1ccco1,"inconclusive: 20.6 µM [inhibitor, single point]",
CN(CC(=O)N1CCN(Cc2ccccc2)CC1)S(=O)(=O)c1ccc(Br)cc1,"inconclusive: 29.1 µM [inhibitor, single point]",
c1ccc(C(NCCNC(c2ccccc2)c2ccccc2)c2ccccc2)cc1,"inconclusive: 29.1 µM [inhibitor, single point]",
Cn1c(=O)c(=O)n(C)c2cc(S(=O)(=O)CCC(=O)N3CCCCC3)ccc21,,inactive: -16.2%

SMILES,Potency,"activity change, negative = growth inhibition"
CCCCC(c1nc2ccccc2[nH]1)n1c(=O)c(-c2ccccc2)nc2cc(C)c(C)cc21 (stereo not given),"inconclusive: 29.1 µM [inhibitor, single point]",
COCCCN(C(=S)Nc1cc(Cl)cc(Cl)c1)C(C)c1ccncc1 (stereo not given),"inconclusive: 32.6 µM [inhibitor, single point]",
Cc1nc(N2CCC(C)CC2)c2oc3ccccc3c2n1,"inconclusive: 18.4 µM [inhibitor, single point]",
Cc1ccc(NC(=O)c2ccccc2Br)c(C(=O)c2ccccc2)c1,,inactive: -13.7%
COc1cc(/C=C2\SC(=O)NC2=O)ccc1Oc1ccc([N+](=O)[O-])cc1[N+](=O)[O-],active: 18.4 µM,
COC(=O)C(C)Sc1nc2c(c(=O)n1-c1ccccc1)SCC2 (stereo not given),,inactive: -10.8%
CC(=O)c1cccc(NC(=O)Nc2csc3c2CCCC3)c1,"inconclusive: 29.1 µM [inhibitor, single point]",
CCN(CC)S(=O)(=O)c1cc(Br)c(C)cc1OC,"inconclusive: 11.6 µM [inhibitor, partial curve]",
CCCCNC(C(=O)Nc1ccc(Cl)c([N+](=O)[O-])c1)c1ccccc1 (stereo not given),"inconclusive: 18.4 µM [inhibitor, single point]",
Cc1cc(C)c(CN2CCC(N3CCC(C(=O)NCC4CCCO4)CC3)CC2)cc1C (stereo not given),"inconclusive: 29.1 µM [inhibitor, single point]",
CCCc1sc(N2CCCC(C(N)=O)C2)nc1-c1ccccc1 (stereo not given),"inconclusive: 23.1 µM [inhibitor, partial curve, poor fit]",
Cc1cnc(C)c(-c2ccc3c(c2)CC(CNC(=O)Cc2c(C)[nH]c4ccccc24)O3)n1 (stereo not given),active: 0.517 µM,
COC(=O)[C@H](NC(=O)c1cc([C@@H](NC(=O)OC(C)(C)C)C(C)C)sc1N)C(C)C,"inconclusive: 25.9 µM [inhibitor, partial curve, poor fit]",
CC1Cc2ccccc2N1C(=O)CCn1c(=O)sc2ccccc21 (stereo not given),"inconclusive: 18.4 µM [inhibitor, single point]",
CCOc1ccc(CSC(=N)N)cc1Cl,active: 14.6 µM,
CCOC(=O)N1CCN(C(=O)CSc2nc3c([nH]c4ccccc43)c(=O)n2CC)CC1,"inconclusive: 16.4 µM [inhibitor, single point]",
CCCCCc1cc(=O)oc2c(C(CCN3CCCC(C)C3)c3ccc4c(c3)OCO4)c(OC)cc(OC)c12 (stereo not given),"inconclusive: 25.9 µM [inhibitor, single point]",
O=C(CCC(=O)OCC(=O)c1ccc(C(F)(F)F)cc1)OCC(=O)c1ccc(C(F)(F)F)cc1,,inactive: 9.18%
CCSc1cnc(-c2ccccc2)n1CC,,inactive: -7.32%
CN(C)C(=O)C1C2NC(=S)N(c3cccc(Cl)c3)C1(C)Oc1ccc(Cl)cc12 (stereo not given),,inactive: -16.8%
CC1CCN(c2nc3ccc(C(=O)NCc4ccccc4)cc3s2)CC1,,inactive: -23%
COc1cc(NC2c3ccccc3C(=O)N2Cc2ccccc2)cc(OC)c1OC (stereo not given),"inconclusive: 29.1 µM [inhibitor, single point]",
